According to ChEMBL document CHEMBL4888484, “Replenishing the malaria drug discovery pipeline: Screening and hit evaluation of the MMV Hit Generation Library 1 (HGL1) against asexual blood stage Plasmodium falciparum ,using a nano luciferase reporter read-out” (2022):
Among all 150,000 compounds or so, about 540 (0.36%) showed an effect of 50% or more. The list shows a part of the results.

Tested on: Plasmodium falciparum
Assay: Primary screen in NF54 nanoGlo assay, in single point, at 2uM, 72h; a lower Z score goes with more inhibition
Type: functional, Erythrocyte
Settings: timepoint 72 hour

| Structure (SMILES) | % Inhibition [%] | Z score |
| --- | --- | --- |
| CCCOc1cc(C)ccc1NCCCS(C)(=O)=O | -11 | 1.08 |
| Cc1ccc(C)c(NC(=O)c2cc(C(C)C)n(-c3ccccn3)n2)c1 | -7 | 0.69 |
| O=C1O[C@H]2CN(c3nc4ccccc4o3)C[C@H]2N1CCc1cccc(Cl)c1 | -16 | 1.94 |
| COCCC1(c2noc(-c3ccc(F)cc3)n2)CCN(Cc2scnc2C)CC1 | 0 | 0.02 |
| Clc1cc(CNCc2ccccc2)ccc1OCc1ccccc1 | 11 | -1.33 |
| CC1(C)CCC[C@H](C(=O)Nc2cc(C(=O)O)ccn2)C1 | -4 | 0.81 |
| COc1cccc(CNC(=O)CN(C[C@H]2CCCO2)C(=O)OC(C)(C)C)c1 | -12 | 1.28 |
| Cc1cc(C)c(CN2CCC(C)CC2)cc1CN[C@@H](C)c1nncn1C | -7 | 1.41 |
| NC(=O)c1cc(-c2cc(NC3CCCC3)nc3[nH]ccc23)ccc1F | -11 | 1.04 |
| Cc1nnc(NCCc2noc([C@@H]3CCCO3)n2)o1 | 11 | -1.24 |
| Cc1cc(=O)n(CC(=O)Nc2ccccc2)c(N2CCCC2)n1 | -34 | 3.69 |
| CCC(C)(C)NS(=O)(=O)c1cc(C)ccc1C | -4 | 0.68 |
| O=C1NCCN(C(=O)c2cnc3c(c2)CCCC3)[C@H]1c1cccc(F)c1 | 14 | -1.98 |
| CC1CCC(NC(=O)N(C)CC2(CO)CC2)c2ccccc21 (stereo not drawn) | 5 | -0.7 |
| CCc1nn(C)cc1CN(C)[C@H]1CC(=O)N(Cc2ccccc2)C1=O | -1 | 0.14 |
| CCOc1c(OC)cccc1[C@H]1CC(=O)Nc2ccsc21 | -8 | 0.97 |
| O=C(Nc1ccc(F)c(F)c1F)c1ccnc(OCC2CC2)c1 | -4 | 0.52 |
| CCOC(=O)N1CCN(C(=O)c2cc3n(n2)CCN(Cc2ccccc2)C3=O)CC1 | -11 | 1.39 |
| O=C1N[C@H](C(=O)Nc2cccc(-c3cnc[nH]3)c2)Cc2ccccc21 | 11 | -1.55 |
| Clc1ccccc1/C=C/c1nc2ccccc2nc1N1CCOCC1 | -15 | 2.64 |
| O=C(c1ccnc(OCC2CC2)c1)N1CCc2ccccc21 | -16 | 3.07 |

| Structure (SMILES) | % Inhibition [%] | Z score |
| --- | --- | --- |
| CCN1CC[C@@]2(CCC1=O)CN(C(=O)CCc1ccccc1)CCN2C | -14 | 1.78 |
| COc1cccc(-c2cc(C3CCC3)nc(N)c2C#N)c1OC | -25 | 2.56 |
| CCOc1ccc(CNC(=O)COCc2nnc(C(=O)Nc3cccc(F)c3)s2)cc1 | -12 | 1.69 |
| Cc1cc(C(=O)N(CC2CC2)CC2CC2)ccc1N | 9 | -1.08 |
| Cc1nc2ccc(CNC(=O)CN3CCCCC3=O)cc2[nH]1 | -17 | 2.16 |
| O=C(Nc1nc2c(s1)CN(C(=O)C1CC=CCC1)CC2)C1CCCO1 (stereo not drawn) | -15 | 2.44 |
| CCC(C)C(NC(=O)C1CCC1)c1nc(-c2ccc(Cl)cc2)no1 (stereo not drawn) | 5 | -0.62 |
| Cc1cccc(-c2nc3cc4c(cc3cc2CN2CCC[C@H](C(N)=O)C2)CCC4)c1 | -13 | 1.27 |
| Cc1nn(C)c2nc(N3CCC[C@@]4(CCCO4)CC3)sc12 | 3 | -0.52 |
| O=C(Cn1cc(-c2ccccc2)ncc1=O)N1CCOCC1 | 1 | -0.16 |
| CN1C(C(=O)Nc2ccccc2C(F)(F)F)CC(c2ccc(F)cc2)NS1(=O)=O (stereo not drawn) | -3 | 0.44 |
| Cc1cnn([C@@H](C)CNS(=O)(=O)CC2CCCC2)c1 | 3 | -0.34 |
| CC(CNS(=O)(=O)C[C@H]1C[C@H]2CCCC[C@H]21)c1nccs1 (stereo partly drawn) | -1 | 0.14 |
| CN1CCc2c(NC(=O)NCCc3ccc(O)cc3)cccc21 | -2 | 0.17 |
| CO[C@H]1CCCN(C(=O)c2c(C)oc3ccc(OCc4ccccc4)cc23)C1 | -27 | 2.61 |
| CN(c1cccc(CCC(=O)O)c1)S(=O)(=O)N1CCc2ccccc2C1 | 0 | -0.02 |
| Cn1cc(C#N)cc1C(=O)N1CC[C@@]2(CCCN(C3CCCCC3)C2=O)C1 | 2 | -0.29 |
| CC(C)CCC(=O)N1CCN(c2nc3cccnc3n(C)c2=O)CC1 | -12 | 2.24 |
| NC(=O)N1CCCC(C(=O)N2C[C@@H]3[C@H](C2)[C@H]3NC(=O)C(C2CC2)C2CC2)C1 (stereo partly drawn) | -6 | 0.82 |
| CCc1ccc(C(=O)N2CC[C@H](CC(=O)NCc3ccccc3)C2)cc1 | 33 | -4.72 |
| CC1CCN([C@@H](CNC(=O)c2ccc(CCNS(C)(=O)=O)s2)c2cccs2)CC1 | 19 | -2.38 |

| Structure (SMILES) | % Inhibition [%] | Z score |
| --- | --- | --- |
| CC(C)n1ncc2ccc(N3C(=O)[C@@H]4CCCCN4C3=O)cc21 | 1 | -0.23 |
| CC[C@H](C)N(Cc1ccc(OC)c(OS(=O)(=O)c2cccc(C(F)(F)F)c2)c1)C(=O)c1cc(C(F)(F)F)cc(C(F)(F)F)c1 | -6 | 0.66 |
| C[C@@H](CS(C)(=O)=O)OC(=O)c1cnn(C(C)(C)C)c1 | 7 | -0.96 |
| COc1cc([C@H]2N(S(=O)(=O)c3ccccc3)CCN2S(=O)(=O)c2ccc(C)cc2)ccc1CS(=O)(=O)c1ccccc1 | -5 | 0.72 |
| O=S1(=O)CCN(c2cc(NCc3cncs3)ccc2F)CC1 | -14 | 1.45 |
| O=S1(=O)CCCC[C@@H]1CNCc1csnn1 | 2 | -0.31 |
| CC(C)N(CC(N)=O)CC1CC2C=CC1C2 (stereo not drawn) | -10 | 1.56 |
| C[C@H]1CN(CC(=O)N2CCNC2=O)CCN1c1ccc2nncn2n1 | -6 | 1.03 |
| Cc1ccc(NCCC(=O)N2CCOC[C@H]2c2ncnn2C)cc1Cl | -6 | 0.79 |
| Cn1ccnc1CCN1CCC(c2cc(Cc3ccccc3)n[nH]2)CC1 | -5 | 0.94 |
| CCCc1nnc(N2CCCC3(CCNCC3)CC2)s1 | -3 | 0.44 |
| O=C(N[C@H]1CCOc2ccccc21)c1ccc2c(c1)OCCO2 | -7 | 1.08 |
| Cn1cnnc1C1CCN(S(=O)(=O)CC2CC3CCC2C3)C1 (stereo not drawn) | -4 | 0.56 |
| N#Cc1ccc(OCc2csc(-c3ncccn3)n2)c(Cl)c1 | -2 | 0.26 |
| CCC1(CC)CNC(=O)[C@H]1NC(=O)c1nsc2ccccc12 | -3 | 0.49 |
| Cc1cc(C)n(CC2CCN(Cc3cc(C#N)cs3)CC2)n1 | -7 | 1.18 |
| Cc1noc(C2(NC(=O)Nc3cnc(CC(C)C)nc3)CCOCC2)n1 | 3 | -0.44 |
| CC(C)[C@H](CNC(=O)c1ccc(Cl)cc1)c1ccnn1C | 1 | -0.13 |
| COCCNC(=O)c1cc2c(n1C)CCN(Cc1cccc(OC)c1)C2 | 17 | -1.97 |
| O=C(c1cccc(C(F)(F)F)c1)N1CCc2[nH]cnc2C12CCCC2 | -14 | 1.81 |
| Cc1cccc2c1nc(CCO)n2-c1cnc(N)cn1 | 5 | -1.01 |

| Structure (SMILES) | % Inhibition [%] | Z score |
| --- | --- | --- |
| Clc1cc(CN2CC[C@@]3(CCCOC3)C2)ccc1OCCN1CCOCC1 | 39 | -1.21 |
| Cc1cc(CS(=O)(=O)N2CCCCC[C@H]2c2ccccc2)no1 | 0 | -0.05 |
| Cc1ccc(C(=O)N2CCC3(CC2)C[C@H](CO)N(C(=O)c2ccccc2)C3)s1 | -8 | 1 |
| CCCC(=O)N1CC[C@@]2(CCCN(Cc3cccc(C)c3)C2)C1 | -10 | 1.77 |
| Cc1ncsc1CN(Cc1ccccc1)C(=O)CCc1c(C)nn(C)c1C | -14 | 2.67 |
| Cc1cnc(OC2CCN(Cc3nc(C)cs3)CC2)nc1 | -4 | 0.81 |
| N#Cc1ccc(Cn2ccncc2=O)c(F)c1 | -7 | 0.87 |
| C[C@H]1CN(S(=O)(=O)c2ccc3c(c2)CCC3)CCO1 | 7 | -0.57 |
| CCN1CCN(c2c(CN(CCOC)C(=O)COc3ccccc3)c(C)nn2-c2cccc(F)c2)CC1 | 1 | -0.11 |
| CN1CC[C@@]2(CCC1=O)CN(C(=O)CCC(F)(F)F)CCN2C | -1 | 0.14 |
| Cc1ccc(NC2=NC(=O)C[C@@H](C(=O)Nc3ccc(C)c(C)c3)N2)cc1 | -16 | 2.05 |
| COc1cccc(OCCNc2cc(N3CCC[C@@H]3CO)ncn2)c1 | 25 | -3.33 |
| O=C1CN(C(=O)NCC(F)(F)c2ccccc2)C2CCCCC2N1 (stereo not drawn) | -9 | 1.2 |
| COC(=O)c1ccc(C(=O)N2CCC(N3CC[C@H](OC)C3)CC2)cc1 | -11 | 1.35 |
| C[C@H]1CN(C(=O)NCC2(C(F)(F)F)CCC2)CC(=O)N1 | -5 | 0.7 |
| CCOC(=O)C1CCC(CN(Cc2c(Cl)cccc2Cl)S(=O)(=O)c2ccc(C)cc2)CC1 (stereo not drawn) | 19 | -2.53 |
| O=C(NCCc1ccco1)c1cc(=O)c2cccc(F)c2[nH]1 | -8 | 1.1 |
| Cc1nc(C)c([C@H](C)NC(=O)Nc2cc(Br)ccc2N2CCOCC2)s1 | 0 | 0.05 |
| Cc1nn(C)c(C(=O)NCC[C@H]2CCOC2)c1Cl | -5 | 0.85 |
| CCS(=O)(=O)N1CCC(CNC(=O)c2cnc3ccccn3c2=O)CC1 | -4 | 0.52 |
| CN(C)C(=O)N1CCc2[nH]nc(-c3cccc4c3OC(F)(F)O4)c2C1 | -11 | 1.72 |
